# The whole screen tested about 310,000 compounds, of which about 2,200 (0.71%) showed an effect of 50% or more. Effects have a minus sign here. This is one part of the list.
# Biological target: human ether-à-go-go-related gene (hERG) potassium channel (human, UniProt Q12809)
# Assay: primary screen, population patch clamp on CHO cells stably expressing hERG
# Chain of human ether-à-go-go-related gene (hERG) potassium channel (Q12809 whole entry, looked up): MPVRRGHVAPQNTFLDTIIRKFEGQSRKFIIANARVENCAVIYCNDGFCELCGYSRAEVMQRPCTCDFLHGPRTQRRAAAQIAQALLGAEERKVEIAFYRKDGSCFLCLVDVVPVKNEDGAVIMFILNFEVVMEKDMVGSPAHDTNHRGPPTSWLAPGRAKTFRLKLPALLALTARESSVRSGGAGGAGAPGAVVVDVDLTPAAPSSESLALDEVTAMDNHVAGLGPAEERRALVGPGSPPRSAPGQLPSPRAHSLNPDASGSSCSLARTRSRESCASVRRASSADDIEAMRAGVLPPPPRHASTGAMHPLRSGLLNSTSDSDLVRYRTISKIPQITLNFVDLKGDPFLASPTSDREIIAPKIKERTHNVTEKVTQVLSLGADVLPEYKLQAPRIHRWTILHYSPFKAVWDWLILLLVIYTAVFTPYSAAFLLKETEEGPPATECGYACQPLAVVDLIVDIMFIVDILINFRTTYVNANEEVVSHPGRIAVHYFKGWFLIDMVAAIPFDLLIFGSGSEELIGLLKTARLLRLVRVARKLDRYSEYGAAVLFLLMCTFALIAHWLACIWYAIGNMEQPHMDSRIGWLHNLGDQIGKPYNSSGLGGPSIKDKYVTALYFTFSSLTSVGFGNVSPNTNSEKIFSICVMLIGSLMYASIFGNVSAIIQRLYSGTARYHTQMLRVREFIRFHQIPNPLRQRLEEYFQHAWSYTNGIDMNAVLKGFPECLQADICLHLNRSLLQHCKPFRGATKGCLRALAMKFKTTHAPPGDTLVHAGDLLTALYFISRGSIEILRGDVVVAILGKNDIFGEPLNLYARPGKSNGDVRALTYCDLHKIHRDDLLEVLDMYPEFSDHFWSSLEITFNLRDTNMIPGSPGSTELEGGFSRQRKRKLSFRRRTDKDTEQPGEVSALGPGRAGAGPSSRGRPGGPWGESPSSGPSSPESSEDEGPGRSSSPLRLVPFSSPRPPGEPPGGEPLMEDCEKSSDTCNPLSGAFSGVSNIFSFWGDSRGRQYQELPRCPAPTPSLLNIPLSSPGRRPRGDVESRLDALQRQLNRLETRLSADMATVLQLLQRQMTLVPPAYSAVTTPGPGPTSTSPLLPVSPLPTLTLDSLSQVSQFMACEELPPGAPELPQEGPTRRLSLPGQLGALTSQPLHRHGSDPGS
row,Compound,"hERG current change (%, negative = inhibition) at 1uM [%]"
1,CC(C)C(C(=O)Nc1nccs1)c1ccc(Cl)cc1 (centres unmarked),11.8
2,COC(CNC(=O)C(=O)Nc1ccc2c(c1)N(S(=O)(=O)c1cccs1)CCC2)OC,13.9
3,CCc1c(C)sc(NC(=O)OC)c1C(N)=O,13.4
4,Cc1ccc2oc(-c3ccco3)nc2c1,-4.7
5,CCOc1ccc(C(CC(=O)O)NC(=O)COc2ccccc2OC)cc1OC (centres unmarked),13.3
6,Cc1ccccc1COC(=O)CNC(=O)c1sc2ccccc2c1Cl,15
7,Cc1nc2ccc(Cl)cc2nc1C,5.4
8,COCCNC(=O)Cn1nc(Cc2ccncc2)c2ccccc2c1=O,11.2
9,CCOc1cc(C2c3c(n[nH]c3C)C(=O)N2c2ccc(Br)cc2)ccc1O (centres unmarked),10.8
10,Nc1ccccc1NC(=O)c1ccccc1N,6.04
11,COc1ccccc1NC(=O)COC(=O)c1c[nH]c2ccccc12,9.21
12,COc1ccc(N2CCN(C(=O)c3ccc(N4CCCCS4(=O)=O)cc3)CC2)cc1,10.7
13,COC(=O)c1cnn(C(=O)c2cc(OC)ccc2Br)c1N,9.43
14,Cc1ccc(C2CC(c3cccc(Cl)c3)n3nc(N)nc3N2)cc1 (centres unmarked),9.11
15,Cc1cc(=O)oc2cc(OCC(=O)OCC(=O)Nc3ccc(C(N)=O)cc3)ccc12,4.02
16,CCOC(=O)c1cc(C(=O)OCC)cc(-n2cc(O)c(C(=O)OCC)n2)c1,16.9
17,O=C(O)c1cc([N+](=O)[O-])ccc1C(=O)Nc1ccccc1,10
18,CCOC(=O)/C(C#N)=C/c1c(OCC)n(CC)c2ccccc12,11.2
19,CCOC(=O)c1cc(=O)n(-c2ccc(Cl)cc2C)[nH]1,5.68
20,COc1ccc(N(CC(=O)N2CCCCCC2)S(=O)(=O)c2c(C)[nH]c(=O)[nH]c2=O)cc1,3.01
21,CSc1ccn(CCC(=O)O)c(=O)n1,10.9
22,Nc1c(C(=O)C2CC2)sc2nc(-c3cccs3)cc(C(F)(F)F)c12,16.6
23,O=C(NC1CCCCC1)C(c1cccs1)N(C(=O)c1ccco1)c1ccc2c(c1)OCCO2 (centres unmarked),8.1

row,Compound,"hERG current change (%, negative = inhibition) at 1uM [%]"
1,COc1ccccc1/C=C/C(=O)Oc1cccc2cccnc12.Cl,4.74
2,COc1cccc(-c2ccc(C#N)c(SCC(=O)NCCc3ccccc3)n2)c1,7.28
3,Cl.c1ccc2c3c([nH]c2c1)C1(CCCCC1)NCC3,11.5
4,CCn1c(SCC(=O)Nc2cc(C)on2)nnc1-c1ccco1,-1.47
5,Cc1ccc(N2C(=O)CC(NCc3ccc4c(c3)OCO4)C2=O)cc1Cl (centres unmarked),-12.2
6,CCCCc1nnc(NC(=O)c2nc3nccc(C)n3n2)s1,9.77
7,O=C(N/C(=C\c1ccc(Br)cc1)C(=O)N1CCOCC1)c1ccco1,3.96
8,CCOc1ccc(C=Nc2cccc3ncccc23)cc1,9.74
9,O=C(O)C(=O)O.c1ccc(-c2ccccc2OCCN2CCCCC2)cc1,-4.98
10,O=C(CSc1nnc(Cc2ccccc2)o1)NC1CC2CCC1C2 (centres unmarked),1.88
11,COc1ccc(NC(=O)c2oc3ccccc3c2C)cn1,9.55
12,Cc1ccc(S(=O)(=O)NC(=O)c2ccccc2F)cc1,1.23
13,O=C(Nc1ncccc1O)c1ccc(OCC2CCCO2)cc1 (centres unmarked),5.2
14,COc1ccc(NC(C)=O)cc1NS(=O)(=O)c1ccc2c(c1)OCCO2,15.8
15,S=C(NCCCN1CCOCC1)N1CCN(c2ccccc2)CC1,1.19
16,COc1ccccc1C(=O)NCC(=O)n1nc(C)cc1C,16.3
17,CCn1c(SCC(=O)Nc2ccc(S(=O)(=O)Nc3ccccn3)cc2)nnc1-c1ccncc1,7.2
18,Cc1ccc(-c2ccc(/C=N\n3cnnc3)o2)c(Br)c1,11.5
19,CCC(C)(C)C1CCC(=NNS(=O)(=O)c2ccc(C)c([N+](=O)[O-])c2)CC1 (centres unmarked),10.6
20,CCOC(=O)CSC1=C(C#N)C(c2sccc2C)CC(=O)N1 (centres unmarked),-12.7
21,Cc1ccnc2nc(C(=O)OCC(=O)c3ccc(Cl)cc3)nn12,14
22,C=CCOn1c(=O)c(-c2ccc(Br)cc2)[n+]([O-])c2ccccc21,11.7
23,Cc1ccccc1NC(=O)COc1coc(CN2CCCc3ccccc32)cc1=O,2.18

row,Compound,"hERG current change (%, negative = inhibition) at 1uM [%]"
1,Cc1cc(C)c[n+](CC(=O)c2cc3ccccc3oc2=O)c1.[Br-],-6.34
2,CCOC(=O)C1=C(CSc2nc(C)cc(C)c2C#N)OC(N)=C(C#N)C1c1ccccc1.CN(C)C=O (centres unmarked),4.86
3,COc1ccc(CCC(C)N2CCC(CO)(Cc3ccccc3)CC2)cc1 (centres unmarked),-31.6
4,Cn1c(SCCOc2ccccc2F)nc2ccccc2c1=O,9.95
5,CCC(=O)Nc1c2c(nc3c1CCC3)CCCC2,4.39
6,CCOc1ccc(C(=O)c2cccs2)cc1,7.12
7,CCOC(=O)c1c(NC(=O)CN(CC)CC)sc2c1CCC2,1.63
8,CC1CC(=O)c2cnc(NCC3CCCO3)nc2C1 (centres unmarked),7.28
9,Cc1ccccc1NC(=O)COC(=O)Cc1cccc(C(F)(F)F)c1,14.9
10,N#Cc1nc(COc2ccc(Br)cc2)oc1N1CCCCCC1,0.165
11,CCOC(=O)COc1cc([N+](=O)[O-])cc2cccnc12,12.3
12,Cc1ccc2nc(-c3ccc(NS(=O)(=O)c4ccccc4)cc3)sc2c1,8.44
13,COc1ccc(OC)c(CCNC(=O)CCc2nnc3ccc(N4CCCCC4)nn23)c1,6.08
14,Cc1c(C(=O)Nc2ccncc2)oc2ccccc12,-17.3
15,CSCCC(NC(=O)c1ccccc1Br)C(=O)N1CCC(C)CC1 (centres unmarked),16
16,CCC(=O)NN1CCc2cc3ccc(C)cc3nc21,14.2
17,COc1ccccc1-c1cc(C(F)(F)F)c(C#N)c(=O)[nH]1,7.15
18,COC(=O)[C@@H]1C[C@@]2(O)[C@H](O)[C@H](O)[C@H](O)C[C@H]2N1Cc1cc(F)ccc1F,11
19,O=C(CSc1nc2ncccc2[nH]1)Nc1ccc2c(c1)OCCO2,4.4
20,CCOc1ccccc1NC(=O)CCS(=O)(=O)c1ccc2c(c1)CCN2C(C)=O,17.8
21,COc1cc2[nH]c3c(N4CCN(c5ccccn5)CC4)ncnc3c2cc1OC,13.1
22,COc1cc(CNCCCN2CCOCC2)ccc1OCC(=O)Nc1cccc(C(F)(F)F)c1.Cl,-23.9
23,CCOc1ccc(N(C)C(=O)CCc2nnc3ccc(N4CCOCC4)nn23)cc1,14.1

row,Compound,"hERG current change (%, negative = inhibition) at 1uM [%]"
1,Cc1nc(C(=O)NC2CCCCC2)sc1C1(C)CC(c2cccnc2)=NO1 (centres unmarked),8.91
2,COc1ccc(CCN(C)C(=O)CCNS(=O)(=O)c2ccccc2C(F)(F)F)cc1OC,10.6
3,CCOCCc1nn2c(=O)cc(CSCC(=O)Nc3ccccc3)nc2s1,14.9
4,COC(=O)c1ccccc1NC(=O)Cn1c(SC)c(F)cnc1=O,7
5,COc1ccc(-c2cc(C(F)(F)F)nc(SCC(=O)Nc3ccc4c(c3)OCO4)n2)cc1OC,2.19
6,CCNC(=S)N/N=C/c1cccc(C)c1,8.19
7,CC(C)CCn1c(O)c(N=NC(=O)c2ccco2)c2ccccc21,11.4
8,Cc1nn(C)c(NC(=O)c2ccc(Cl)cc2)c1Cl,10.2
9,Cc1ccc(-n2nc3c(c2NC(=O)C2CC2)CS(=O)(=O)C3)cc1C,4.41
10,Cc1ccc2nc3ccc(N4CCCCCCC4)nn3c(=O)c2c1,-9.45
11,COc1cc2ccc(=O)oc2c(O)c1OCC=C(C)C,9.16
12,CCc1cc2cc(C(=O)Nc3ccc(F)cc3)sc2s1,-4.58
13,COC(=O)C1=C(c2cc3ccccc3s2)C[C@@H]2CC[C@H]1N2C(=O)NC1CCCCC1,-3.87
14,CC(C)CNC(=O)C(=O)NCCC1CCCCN1S(=O)(=O)c1cccs1 (centres unmarked),6.11
15,O=C(Cn1cncn1)N/N=C/c1ccccc1O,6.95
16,CCCOc1c(Br)cc(C2C3=C(CCCC3=O)N(CC)C3=C2C(=O)CCC3)cc1OC,9.24
17,COc1ccc(CN(C(=O)c2ccccc2Br)C2CCS(=O)(=O)C2)cc1 (centres unmarked),7.85
18,O=C1OC(/C=C/c2ccccc2)=NC/1=C\c1cccnc1,16.5
19,COc1cc2c(cc1OC)C(=O)CCS2,4.62
20,CNCc1ccccc1Sc1ccc(O)c(O)c1.O=C([O-])/C=C\C(=O)[O-],1.86
21,CCCCn1c(N2CCCC2)nc2c1c(=O)[nH]c(=O)n2C,7.8
22,COc1cc(/C=N/NC(=O)c2nnn(-c3nonc3N)c2-c2cccs2)ccc1O,-4.65
23,O=C(NNS(=O)(=O)c1ccc(F)cc1)c1cccc(O)c1,16

# Source: publication PMC4336329 (PLoS ONE, 2015)
